{
  "source": "the supplement of paper PMC8728848",
  "assay_in_all_cases": "glycan array binding signal (z-score within array); higher = stronger binding",
  "settings_in_all_cases": "glycan notation: IUPAC condensed, linker removed",
  "key": {"[1]": {"biological_target": "Neu5Ac(a2-6)GlcNAc(b1-4)GlcNAc(b1-4)GlcNAc", "summary_of_the_method": "(§1)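 Glycan array binding is given as a within-array Z-score, which can be read as non-binding when negative. The arrays, 3228 of them, came from the Consortium for Functional Glycomics database and were retained only where the protein sequence was available. Z-scores were averaged across arrays of the same protein sequence at different concentrations or buffers and across linkers.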"}, "[2]": {"biological_target": "Neu5Ac(a2-8)Neu5Ac", "summary_of_the_method": "as §1"}, "[3]": {"biological_target": "Neu5Ac(a2-8)Neu5Ac(a2-3)Gal(b1-3)GalNAc(b1-4)[Neu5Ac(a2-3)]Gal(b1-4)Glc", "summary_of_the_method": "as §1"}, "[4]": {"biological_target": "Neu5Ac(a2-8)Neu5Ac(a2-3)Gal(b1-3)GalNAc(b1-4)[Neu5Ac(a2-8)Neu5Ac(a2-3)]Gal(b1-4)Glc", "summary_of_the_method": "as §1"}, "[5]": {"biological_target": "Neu5Ac(a2-8)Neu5Ac(a2-3)Gal(b1-4)Glc", "summary_of_the_method": "as §1"}, "[6]": {"biological_target": "Neu5Ac(a2-8)Neu5Ac(a2-3)Gal(b1-4)GlcNAc", "summary_of_the_method": "as §1"}, "[7]": {"biological_target": "Neu5Ac(a2-8)Neu5Ac(a2-3)[Gal(b1-3)GalNAc(b1-4)]Gal(b1-4)Glc", "summary_of_the_method": "as §1"}, "[8]": {"biological_target": "Neu5Ac(a2-8)Neu5Ac(a2-3)[GalNAc(b1-4)]Gal(b1-4)Glc", "summary_of_the_method": "as §1"}, "[9]": {"biological_target": "Neu5Ac(a2-8)Neu5Ac(a2-8)Neu5Ac", "summary_of_the_method": "as §1"}, "[10]": {"biological_target": "Neu5Ac(a2-8)Neu5Ac(a2-8)Neu5Ac(a2-3)Gal(b1-4)Glc", "summary_of_the_method": "as §1"}, "[11]": {"biological_target": "Neu5Ac(a2-8)Neu5Ac(a2-8)Neu5Ac(a2-3)[Gal(b1-3)GalNAc(b1-4)]Gal(b1-4)Glc", "summary_of_the_method": "as §1"}, "[12]": {"biological_target": "Neu5Ac(a2-8)Neu5Ac(a2-8)Neu5Ac(a2-3)[GalNAc(b1-4)]Gal(b1-4)Glc", "summary_of_the_method": "as §1"}, "[13]": {"biological_target": "Neu5Ac(a2-8)Neu5Ac(a2-8)Neu5Ac(a2-8)Neu5Ac(a2-3)[GalNAc(b1-4)]Gal(b1-4)Glc", "summary_of_the_method": "as §1"}, "[14]": {"biological_target": "Neu5Ac(a2-8)Neu5Gc(a2-3)Gal(b1-4)GlcNAc", "summary_of_the_method": "as §1"}, "[15]": {"biological_target": "Neu5Ac(b2-6)Gal(b1-4)GlcNAc", "summary_of_the_method": "as §1"}, "[16]": {"biological_target": "Neu5Ac(b2-6)GalNAc", "summary_of_the_method": "as §1"}, "[17]": {"biological_target": "Neu5Ac9Ac(a2-3)Gal(b1-3)GlcNAc", "summary_of_the_method": "as §1"}, "[18]": {"biological_target": "Neu5Ac9Ac(a2-3)Gal(b1-4)GlcNAc", "summary_of_the_method": "as §1"}, "[19]": {"biological_target": "Neu5Ac9Ac(a2-6)Gal(b1-4)GlcNAc", "summary_of_the_method": "as §1"}, "[20]": {"biological_target": "Neu5Gc(a2-3)Gal(b1-3)GlcNAc", "summary_of_the_method": "as §1"}, "[21]": {"biological_target": "Neu5Gc(a2-3)Gal(b1-3)[Fuc(a1-4)]GlcNAc", "summary_of_the_method": "as §1"}, "[22]": {"biological_target": "Neu5Gc(a2-3)Gal(b1-4)Glc", "summary_of_the_method": "as §1"}, "[23]": {"biological_target": "Neu5Gc(a2-3)Gal(b1-4)GlcNAc", "summary_of_the_method": "as §1"}, "[24]": {"biological_target": "Neu5Gc(a2-3)Gal(b1-4)GlcNAc(b1-3)Gal(b1-4)GlcNAc(b1-2)Man(a1-3)[Neu5Gc(a2-3)Gal(b1-4)GlcNAc(b1-3)Gal(b1-4)GlcNAc(b1-2)Man(a1-6)]Man(b1-4)GlcNAc(b1-4)GlcNAc", "summary_of_the_method": "as §1"}, "[25]": {"biological_target": "Neu5Gc(a2-3)Gal(b1-4)[Fuc(a1-3)]GlcNAc", "summary_of_the_method": "as §1"}, "[26]": {"biological_target": "Neu5Gc(a2-6)Gal(b1-4)GlcNAc", "summary_of_the_method": "as §1"}, "[27]": {"biological_target": "Neu5Gc(a2-6)GalNAc", "summary_of_the_method": "as §1"}, "[28]": {"biological_target": "Neu5Gc(a2-8)Neu5Ac(a2-3)Gal(b1-4)GlcNAc", "summary_of_the_method": "as §1"}, "[29]": {"biological_target": "Neu5Gc(a2-8)Neu5Gc(a2-3)Gal(b1-4)GlcNAc", "summary_of_the_method": "as §1"}, "[30]": {"biological_target": "Neu5Gc(a2-8)Neu5Gc(a2-3)Gal(b1-4)GlcNAc(b1-3)Gal(b1-4)GlcNAc", "summary_of_the_method": "as §1"}, "[31]": {"biological_target": "Neu5Gc(a2-8)Neu5Gc(a2-6)Gal(b1-4)GlcNAc", "summary_of_the_method": "as §1"}, "[32]": {"biological_target": "Neu5Gc(b2-6)Gal(b1-4)GlcNAc", "summary_of_the_method": "as §1"}},
  "note": "The list shows a part of the results.",
  "data": [
    {"binder": "FimA-N3 (Actinomyces oris) (protein) MHHHHHHSSGVDLGTENLYFQSNAGLQGAQFQLYKAKNAYANTCSNEKEGAPIAINGQTTLTTDAQGAIDIKGLFISDSIDGADRDNQVNAMERCYVLVETKAPAGYVLPAGNGAATPVKVKAGEETTDN", "values": [
      {"measurement": "glycan array binding signal (z-score)", "setting": "[1]", "result": 2.65},
      {"measurement": "glycan array binding signal (z-score)", "setting": "[2]", "result": -0.246},
      {"measurement": "glycan array binding signal (z-score)", "setting": "[3]", "result": -0.39},
      {"measurement": "glycan array binding signal (z-score)", "setting": "[4]", "result": -0.142},
      {"measurement": "glycan array binding signal (z-score)", "setting": "[5]", "result": -0.606},
      {"measurement": "glycan array binding signal (z-score)", "setting": "[6]", "result": -0.444},
      {"measurement": "glycan array binding signal (z-score)", "setting": "[7]", "result": -0.46},
      {"measurement": "glycan array binding signal (z-score)", "setting": "[8]", "result": -0.272},
      {"measurement": "glycan array binding signal (z-score)", "setting": "[9]", "result": -0.564},
      {"measurement": "glycan array binding signal (z-score)", "setting": "[10]", "result": 1.78},
      {"measurement": "glycan array binding signal (z-score)", "setting": "[11]", "result": -0.224},
      {"measurement": "glycan array binding signal (z-score)", "setting": "[12]", "result": -0.132},
      {"measurement": "glycan array binding signal (z-score)", "setting": "[13]", "result": 0.506},
      {"measurement": "glycan array binding signal (z-score)", "setting": "[14]", "result": -0.448},
      {"measurement": "glycan array binding signal (z-score)", "setting": "[15]", "result": -0.299},
      {"measurement": "glycan array binding signal (z-score)", "setting": "[16]", "result": -0.344},
      {"measurement": "glycan array binding signal (z-score)", "setting": "[17]", "result": 0.189},
      {"measurement": "glycan array binding signal (z-score)", "setting": "[18]", "result": -0.758},
      {"measurement": "glycan array binding signal (z-score)", "setting": "[19]", "result": -0.706},
      {"measurement": "glycan array binding signal (z-score)", "setting": "[20]", "result": -0.37},
      {"measurement": "glycan array binding signal (z-score)", "setting": "[21]", "result": -0.336},
      {"measurement": "glycan array binding signal (z-score)", "setting": "[22]", "result": -0.378},
      {"measurement": "glycan array binding signal (z-score)", "setting": "[23]", "result": 0.031},
      {"measurement": "glycan array binding signal (z-score)", "setting": "[24]", "result": 0.801},
      {"measurement": "glycan array binding signal (z-score)", "setting": "[25]", "result": -0.363},
      {"measurement": "glycan array binding signal (z-score)", "setting": "[26]", "result": -0.544},
      {"measurement": "glycan array binding signal (z-score)", "setting": "[27]", "result": -0.145},
      {"measurement": "glycan array binding signal (z-score)", "setting": "[28]", "result": -0.164},
      {"measurement": "glycan array binding signal (z-score)", "setting": "[29]", "result": -0.385},
      {"measurement": "glycan array binding signal (z-score)", "setting": "[30]", "result": 0.032},
      {"measurement": "glycan array binding signal (z-score)", "setting": "[31]", "result": -0.391},
      {"measurement": "glycan array binding signal (z-score)", "setting": "[32]", "result": -0.15}
    ]}
  ]
}
